Test results published in the supplement of paper PMC11417369.
This is one part of the list.

The sequences below were run on PfAP2-HC AP2 domain (GST-tagged) (assay: gcPBM binding intensity (ln(normalized median fluorescence intensity)); higher = stronger DNA binding).
How it was run: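 An Agilent 4 × 180k array of primer-extended double-stranded 36-bp intergenic genomic probes, with negative controls, was incubated for 1 h with GST-tagged P. falciparum DNA-binding domains expressed in E. coli. Alexa488 anti-GST antibody detected bound protein, scanned at 488 nm. Binding intensity is the highest Masliner-normalised natural-log median intensity across replicate spots of either probe orientation.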

| Sequence | gcPBM binding intensity (ln) |
| --- | --- |
| GTATAACAACTGATAAAAGAAAAAAAATTTATTATT [CACACA_negctrl_site377] | 9.53 |
| ATAATATTTTTAAACTGTACTTTTATAAACACTTAT [XGTACX_site2625] | 9.75 |
| TCATATTTTACATATGCATGTTAATAATACAAACAT [TGCATGCA_site994] | 9.68 |
| TTTTTTTCGTATATTACACACTATAAATAGAAATTA [CACACA_site6278] | 9.48 |
| TTAACATCAAAATATGCACACAAACAATTAGCGGTA [CACACA_site8801] | 9.89 |
| TATATATATAAATACACACACACCCTAAAAATATAT [CACACA_site4970] | 10.4 |
| ATATTATGTCTACATAAACACACATATATATAAAAA [CACACA_site7976] | 9.73 |
| TTACCATAAGTATGTGGTACACTTTAAATGAAGATA [XGTACX_site6972] | 9.53 |
| AATAAATATTCATTTTGTACATATTTTTCGTATATG [XGTACX_site6104] | 9.65 |
| AATAGTTATAAATATAAATATATATATATATATATA [CACACA_negctrl_site414] | 9.48 |
| TTTTCATTCTTTTCCTTTGATTTACAATAGTATATT [GTGCAC_negctrl_site687] | 9.81 |
| CAAAATATTATCATGATGCACTTTACACTCTAAGGT | 9.78 |
| AAAAAATAAAAGTGGGGTACATGTCATTATGTGCAT [XGTACX_site3753] | 9.83 |
| TCATTATATTATTCTTGTACTTATATCCTTTTTTGA [XGTACX_site5320] | 9.76 |
| TAAAAGTTCACCTGTACACACATATATATCTGTACA [CACACA_site5019] | 9.87 |
| GTTTATTAGGAATTATGTACACAGTTTTATAAAGAA [XGTACX_site2994] | 9.53 |
| AATATAATATATTGCACACAAAAAGTGAATTATTCT [CACACA_site1684] | 9.89 |
| AATATATACATACATACATGCACATATATATATATA [TGCATGCA_site393] | 9.76 |
| AAATAGTTGTTATGGGTGCAAACCACATATATATAA [GTGCAC_site9428] | 9.63 |
| AGGCCTTTTAGTATTTCACACACGTAAATGTGTATA [CACACA_site8284] | 10.1 |
| ATTTGTTTAAGTCACGAACACACATATATCATCAAT [CACACA_site985] | 9.77 |
| ATTATTTACCACAACACACAAATATTTACCAATCAT [CACACA_site5472] | 10.5 |

| Sequence | gcPBM binding intensity (ln) |
| --- | --- |
| AAATATTATTCATTTTGTACGTATAATTTTTAATGA [XGTACX_site3509] | 9.57 |
| AGTAGTCTGGAGAAAAGTACACAGTATCTGGTAGCT [XGTACX_site2544] | 9.6 |
| TATAATAATCCACAAGCACACACACCCACATATATA [CACACA_site8343] | 11.3 |
| GATCTTTCACATATATATATAAAGGATATTATGGTA [CACACA_negctrl_site522] | 9.5 |
| ATTATATTATATTATACATGCATAATATTATATAAA [TGCATGCA_site647] | 9.54 |
| TTATTACACAAATGGTGTACTTTTGAGGAACCAAAA [XGTACX_site4279] | 9.44 |
| AAATTAAATGTAAGCACACATAAATTATACGCATAT [CACACA_site3335] | 9.79 |
| ACATTGAATAAATAATGTACATATATAATATATATT [XGTACX_site95] | 9.73 |
| TTGCAGTATTTCGGAACACACAAACATAAATATGTA [CACACA_site5307] | 9.67 |
| AACATCTTATCATCATGTACGAAGCAGTTTTATAAG [XGTACX_site2490] | 9.54 |
| TATAATAAATATACTGGTACACAAATATATATATTT [XGTACX_site7741] | 9.77 |
| TGTAATTTTTTACGTTGTACATATATTAACAATATA [XGTACX_site3991] | 9.54 |
| ATATTATATTTACATAGTACACTATATGTATATATA [XGTACX_site2101] | 9.79 |
| TATGCATATACACAAGCACACATATATATATATATA [CACACA_site8266] | 9.97 |
| AAAAAAATAATATAATATTAAATCTTAGTTAATAAA [GTGCAC_negctrl_site658] | 9.49 |
| AAAAAAAAAAAAAAAAAAACTAATATAATAAAAATA [TGCATGCA_negctrl_site150] | 9.31 |
| TTTTTTTTTTTTTACACACCCAAATCACATACATAT [CACACA_site6089] | 9.79 |
| TTTTTTTTTTTTTTTTCTTTTTTTTTTTTAAATAAG [XGTACX_negctrl_site418] | 8.82 |
| ATGTCAGGGAAAAAAACACACAAGAGTATGATATGT [CACACA_site2180] | 9.8 |
| ATTTTTATATTTAATACACACATAAAATCATACCAT [CACACA_site23] | 9.73 |
| TTACATATTTTCATTTGTACATATTCATTTTTTTTC [XGTACX_site6988] | 9.74 |
| AAATAACCCACGTGCATGCACTTCAATAACTGAACT | 9.84 |
